Results from the supplement of paper PMC3334620.
Over roughly 33,000 sequences, “E-score (-0.5 to 0.5)” has its median near -0.013; the highest 2% begin near 0.3. Some of the results follow.

Biological target: T1, Msn1 (UniProt P22148)
T1 sequence: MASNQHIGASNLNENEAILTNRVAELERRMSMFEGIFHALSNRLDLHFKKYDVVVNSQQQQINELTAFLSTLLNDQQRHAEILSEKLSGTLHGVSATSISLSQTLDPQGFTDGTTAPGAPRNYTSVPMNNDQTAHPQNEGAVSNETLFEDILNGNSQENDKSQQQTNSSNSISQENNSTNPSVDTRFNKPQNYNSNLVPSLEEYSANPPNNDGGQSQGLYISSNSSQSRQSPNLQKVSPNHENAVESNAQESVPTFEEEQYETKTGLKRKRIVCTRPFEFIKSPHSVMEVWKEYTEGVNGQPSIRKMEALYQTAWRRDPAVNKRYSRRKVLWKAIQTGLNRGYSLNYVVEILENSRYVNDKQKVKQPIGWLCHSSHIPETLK
Assay: PBM E-score (8-mer binding enrichment) (E-score (-0.5 to 0.5)); higher = stronger / more preferred TF binding; most listed sequences are background and not binding sites
Details: protein concentration: 200 nM; construct: GST-full length
Procedure: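 Universal 'all 10-mer' protein binding microarrays (Agilent AMADID 015681) probed with GST-tagged S. cerevisiae TFs (full-length or DBD) made by in vitro transcription/translation (PURExpress), about 100-200 nM. Bound TF was detected with fluorescent anti-GST. Each ungapped 8-mer (which stands for itself and its reverse complement) is scored by the PBM enrichment score (E-score), a modified Wilcoxon-Mann-Whitney statistic from -0.5 to +0.5, computed with the Universal PBM Analysis Suite. Scale: above 0.35 generally sequence-specific binding.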

Row | Sequence | PBM E-score
1 | GCAACGTA | -0.221
2 | AGTGGCTG | 0.0171
3 | AGGCCTGA | -0.00674
4 | CGGAGTTA | -0.0117
5 | GTTCTAAA | 0.153
6 | TCGAGGAA | -0.0647
7 | GCCTACAA | -0.0308
8 | AACACTTG | -0.0167
9 | CCCCGAGA | -0.0201
10 | GATGATTA | -0.0758
11 | CGTCCGCA | -0.015
12 | ACGTTTCC | -0.122
13 | CGCTCCAA | -0.107
14 | CGCTCGTC | -0.0118
15 | ACTGCACG | -0.102
16 | AACCGATG | 0.00644
17 | GCCCGACA | 0.0966
18 | CGCGTCCG | 0.182
19 | ACGATGAC | 0.0423
20 | GTCAATCA | -0.0572
21 | AATGAGCC | -0.266
22 | AAATGTCT | 0.486
23 | ATCTTCCC | 0.00877
24 | CCAAGATC | -0.0303
25 | AAAGCTGC | 0.113

Row | Sequence | PBM E-score
26 | ATGCCTCG | 0.0768
27 | ACCGGGCA | 0.0679
28 | AACGGTGG | -0.0814
29 | CATAAGAG | -0.121
30 | AGAAGCTC | -0.0296
31 | GGAGTGCC | -0.122
32 | AGAGAGGG | -0.234
33 | CATGCAGC | -0.289
34 | GAACTCCC | -0.0317
35 | ACTTTATC | 0.232
36 | GGGCCTCA | -0.254
37 | GGAGCTTA | -0.137
38 | ACCGACTA | -0.24
39 | AGCTGCAA | -0.117
40 | GACCCCGA | -0.0373
41 | GGGTGGAC | 0.0244
42 | CGATTTGA | -0.163
43 | CTAATTGC | 0.0543
44 | CAGCGCCC | -0.322
45 | GGGTCTCA | -0.193
46 | GTCGGCAA | 0.0539
47 | CCTGTTGC | -0.11
48 | CAAATGCC | -0.0886
49 | CCGAGCGA | 0.108
50 | GGGATAAC | -0.104

Row | Sequence | PBM E-score
51 | AAGACCCG | -0.16
52 | AATAGGCT | 0.00282
53 | AACAGCGC | -0.176
54 | GGTTCCAA | 0.105
55 | ACAACTAG | 0.0515
56 | AAGCCTCA | -0.318
57 | TCTCCTAA | -0.167
58 | ACTCCTCC | -0.164
59 | AGGCATGA | -0.183
60 | TCGAAAAA | 0.211
61 | ACGTAAAC | -0.096
62 | TACTTCGA | 0.221
63 | AAACCGTC | -0.0905
64 | AATGCTAT | 0.0248
65 | GGGCTAGA | -0.0378
66 | ACGTTCAT | -0.0432
67 | GACACCCA | -0.0608
68 | GGGCCAGA | -0.24
69 | AAGAATCT | 0.00385
70 | ACTCTTAG | -0.0534
71 | GATCTCCA | -0.103
72 | GAACCAAC | -0.0556
73 | ATCCGCCA | -0.148
74 | GATATCGA | -0.0325
75 | GATACGAC | 0.163

Row | Sequence | PBM E-score
76 | GGCTTCCC | -0.146
77 | AGGTCGAT | 0.149
78 | GTGCCTTA | -0.17
79 | AGTACCTC | -0.0524
80 | GTTTAACA | -0.112
81 | ATGTCTAA | 0.403
82 | AGTGATAC | -0.0394
83 | GAACAGGA | 0.0425
84 | CAAGTTGC | -0.0163
85 | CCTCCACA | -0.153
86 | GGTTCCCA | -0.0277
87 | GGAATGAC | 0.114
88 | CGCCGTTA | -0.0247
89 | ATTGGAGC | 0.0666
90 | AAATCAGT | 0.0259
91 | GTCACGAC | 0.287
92 | ATAACCAC | -0.0969
93 | CCCAACAG | -0.158
94 | ACGTTAGA | 0.106
95 | CAGACGAC | -0.114
96 | CAAACGCC | 0.0963
97 | AAGTCACA | 0.127
98 | ACGCACAC | -0.0696
99 | AGTGTGAT | -0.0635
100 | ATAAGCGA | 0.0913

Row | Sequence | PBM E-score
101 | CGTCACAG | 0.059
102 | CGCACGAC | -0.0608
103 | ATTGCACA | 0.0243
104 | CGGGGAGC | -0.157
105 | GAGAAGTA | -0.151
106 | CCTGTCAC | 0.0491
107 | AGTCGAAT | 0.0294
108 | ACCCACCT | -0.157
109 | AGGTGGGC | -0.185
110 | AACCGTTC | 0.0531
111 | GTGAAGTA | 0.0228
112 | CCCGAGGG | -0.0369
113 | TATAACAA | 0.0954
114 | ATTTCGTC | 0.109
115 | CCTGTACC | -0.175
116 | AATGAGAA | 0.0795
117 | CCGACAAC | 0.167
118 | ATCATGTG | 0.0113
119 | AACTTAGT | -0.075
120 | GGCTCCCC | -0.334
121 | ATAATGCG | 0.0607
122 | CGGGATAC | -0.00668
123 | GCCTGGGA | -0.0263
124 | ACTGATCG | -0.0817
125 | CATCGAAC | -0.0432

Row | Sequence | PBM E-score
126 | ACGGCAGA | 0.0753
127 | AAACTACA | 0.0647
128 | GCCATGGC | -0.165
129 | ACAGAAGC | 0.16
130 | CTCCCAGA | -0.153
131 | AGCACCCA | -0.243
132 | ATACGAAC | 0.0898
133 | GAGGGGGA | -0.268
134 | AGTTCCTA | -0.0032
135 | TACTATAA | 0.161
136 | CAGCAACC | -0.183
137 | CGAGAGCG | -0.172
138 | GTTTACGA | -0.033
139 | ACCCATAT | 0.0298
140 | AACGATGA | -0.0234
141 | CCGCTCCG | -0.0191
142 | CAGGCGCG | -0.0355
143 | ACTCGGAG | -0.0122
144 | ACCTGATC | -0.125
145 | TATCAAGA | 0.121
146 | AACGCTTG | -0.0887
147 | TGTATAAA | 0.0755
148 | AAACCCTC | -0.172
149 | ACAGAACC | -0.0903
150 | CTGACTCC | -0.272

Row | Sequence | PBM E-score
151 | GCACGGTA | -0.163
152 | CTCTTAAC | -0.0299
153 | ACGAGAAC | -0.00461
154 | ACATTTAA | 0.324
155 | GCCCGCAC | -0.0809
156 | ACGATATG | 0.116
157 | ATGTACGC | 0.141
158 | GCAATCAC | 0.031
159 | AATGAGGC | -0.167
160 | ATTCCCAC | 0.028
161 | AAAGGCGG | 0.0683
162 | TAGGCAAA | 0.0155
163 | GCACTTCC | -0.215
164 | AAACCACT | 0.0652
165 | GCCCGGAC | 0.00869
166 | AATAGCGA | 0.211
167 | CTGATTGA | -0.0304
168 | CCTCCGAA | 0.0319
169 | GAACAGGC | -0.164
170 | AATACCTG | -0.0275
171 | ACTCGCTA | -0.0369
172 | AATAGGTC | 0.0197
